Source: PubChem BioAssay AID686978 (National Center for Advancing Translational Sciences (NCATS), 2013)
Values joined by “and” are separate entries in the source; they are usually repeats but may differ in a detail not shown here. Equal values may be shown once. Out of some 420,000 compounds screened, about 64,000 (15%) were called active. This list was built around the results that the source calls inconclusive (neither active nor inactive); the mix of calls is not that of the screen. Calls come from the whole dose curve; as a rule, active = well fitted inhibition curve with a large enough effect; inconclusive = small, poorly fitted or top-dose-only effect; inactive = flat fitted curve, though single readings scatter. Where the call is inconclusive, the potency comes from a doubtful curve fit.

Experiment: qHTS for Inhibitors of human tyrosyl-DNA phosphodiesterase 1 (TDP1): qHTS in cells in absence of CPT; note: nearly all actives have a fitted effect of over 55% in size
Conditions: DT40 Tdp1-/- hTDP1 cells, no CPT, ATP luminescence, 48 h; activity change, negative = growth inhibition: at 46.2 µM (top of the series) unless noted
Procedure, shortened: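 Camptothecin absent (DMSO only). Human TDP1-complemented DT40 knockout cells, 400 cells/well, 37 °C for minimum 48 hr; ATP measured via CellTiter-Glo, 30 min dark incubation, luminescence.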
% is set by controls: 0 for no effect and ±100 for the full control effect; potency is the fitted concentration of half-maximal effect; tags give direction and shape of the fitted curve.

Structure (SMILES) | Potency | activity change, negative = growth inhibition
CCc1nc2c(OCc3ccc(F)c(F)c3)cccn2c1N(C)C(=O)C(C)C | inconclusive: 20.6 µM [inhibitor, single point] | 
O=C(Cc1ccccc1)N/N=C/c1ccccn1 |  | inactive: -15.3%
CCOc1cc(-c2cc(-c3ccccc3)nc(N)c2C#N)ccc1O | inconclusive: 20.6 µM [inhibitor, single point] | 
CC(C)CNc1nc(NC(C)(C)C)nc(Oc2ccc(=O)n(-c3ccccc3)n2)n1 | inconclusive: 20.6 µM [inhibitor, single point] | 
CCC/C(=N\NC(=O)CNC(=O)c1ccc(Cl)cc1)c1ccccc1 | inconclusive: 23.1 µM [inhibitor, single point] | 
O=C(CCc1ccc(S(=O)(=O)N2CCOCC2)cc1)Nc1nc(COc2ccccc2)cs1 | inconclusive: 20.6 µM [inhibitor, single point] | 
Cc1sc2ncnc(N3CCC(C(=O)NCC(=O)Nc4ccc(F)c(F)c4)CC3)c2c1C | inconclusive: 29.1 µM [inhibitor, single point] | 
CN(CC(=O)Nc1ccc(F)c(F)c1F)C(=O)Cc1ccc2c(c1)OCCO2 |  | inactive: -15.2%
COc1ccccc1C(=O)Nc1ccc(S(=O)(=O)N(C)c2ccccc2)cc1 | inconclusive: 16.4 µM [inhibitor, single point] | 
COc1cccc(-c2cc(C(=O)Nc3cc(C)nn3-c3ccccc3)no2)c1 | inactive | 
CCN(CC)S(=O)(=O)c1nnc(NC(=O)c2ccccc2Cl)s1 |  | inactive: -13%
COc1cc(OC)cc(C(=O)Nc2cccc(NC(=O)c3cccs3)c2)c1 | inconclusive: 20.6 µM [inhibitor, single point] | 
Cc1ccc(NS(=O)(=O)c2c(C)[nH]c(C)c2C(=O)N2CCCCC2)cc1Cl |  | inactive: -18%
Cc1ccc(C)c2sc(NC(=O)c3ccc(S(=O)(=O)N4CCCC4)cc3)nc12 | active: 29.1 µM | 
COc1cccc(/C=N/NC(=O)c2nc(-c3ccccc3)cc(-c3ccccc3)n2)c1O | active: 9.2 µM | 
Cc1ccc(Cn2c(SCC(=O)NCC3CCCO3)nc3c(sc4ccccc43)c2=O)cc1 (stereo unspecified) |  | inactive: -9.61%
O=C(c1cc2ccc3cccnc3c2[nH]1)N1CCN(c2cccc(C(F)(F)F)c2)CC1 |  | inactive: -26.1%
CC(C)CCSc1nnc(Cn2c(=O)sc3ccccc32)n1C |  | inconclusive: -31.2% [inhibitor]
Cc1cc(-c2c(C)[nH]n(-c3ccc(Cl)cc3)c2=O)n[nH]1 | active: 13 µM | 
CCN(CC)C(=O)C1=C(C)N(CCCN2CCCC2=O)C(=O)C(CC(=O)NCCCN(C)C)C1 (stereo unspecified) |  | inactive: -9.3%
Cc1ccc(OCC(=O)N(Cc2cccs2)C2CCS(=O)(=O)C2)cc1C (stereo unspecified) |  | inactive: -17.4%
CCOc1cnc(-c2c(-c3c(Cl)cccc3Cl)noc2C)o1 | inconclusive: 16.4 µM [inhibitor, partial curve] | 
COc1ccc(-c2cc(C(F)(F)F)nc(SCC(=O)N(C)Cc3ccccc3)n2)cc1OC | inconclusive: 23.1 µM [inhibitor, single point] | 
Cc1ccc(-n2ncc3c2CC(C)(C)CC3NC(=O)CCc2ccc(=O)[nH]n2)cc1 (stereo unspecified) |  | inactive: 25.3%

Structure (SMILES) | Potency | activity change, negative = growth inhibition
CCN(CC)c1nc(C)c(C(C)=O)cc1C#N |  | inconclusive: -30.6% [inhibitor]
CCCNc1ncnc2c1cnn2C1CCCCO1 (stereo unspecified) |  | inactive: -14.1%
CCOC(=O)C1CCN(c2cc3c(cc2NC(=O)c2ccccc2)n(C)c(=O)n3C)CC1 | active: 8.2 µM | 
COc1ccc(NC(=O)CSc2nnc(C3CC3)n2-c2ccccc2)cc1 |  | inactive: -6.01%
CCN1CCN(CCCNC(=O)c2cc3c(=O)n(CC)c4ccccc4c3s2)CC1 | inconclusive: 25.9 µM [inhibitor, single point] | 
Cc1c(CNCc2ccc(OC(C)C)cc2)c(C(=O)O)c(C)n1Cc1ccc(Cl)cc1 | inconclusive: 32.6 µM [inhibitor, single point] | 
COc1ccccc1NC(=S)NCCc1ccc(F)cc1 | inconclusive: 25.9 µM [inhibitor, single point] | 
COc1ccc(CNc2oc(-c3ccc(COc4ccc(Cl)cc4)o3)nc2C#N)cc1 | inconclusive: 18.4 µM [inhibitor, single point] | 
CCOC(=O)c1cccc(NC(=O)c2cc(S(=O)(=O)N3CCCCCC3)cn2C)c1 | inconclusive: 23.1 µM [inhibitor, single point] | 
CC(=Cc1cccs1)C(=O)c1ccccc1 | inconclusive: 18.4 µM [inhibitor, single point] | 
Cc1ccn2c(=O)c(NC(=O)c3ccc4c(c3)OCO4)c(C)nc2c1 |  | inactive: -24%
COc1cc(O)ccc1C1CC(=O)Nc2c1c(=O)nc(SCc1ccccc1C)n2C (stereo unspecified) |  | inactive: -12.7%
CCN1c2ccccc2-c2nc(SCC(=O)Nc3cccc(C(F)(F)F)c3)ncc2S1(=O)=O | inconclusive: 23.1 µM [inhibitor, single point] | 
CCC(C)(C)NS(=O)(=O)c1cc(-c2cc(C)no2)ccc1C | inconclusive: 29.1 µM [inhibitor, single point] | 
COc1ccc(-c2cc(-c3cccs3)c(C#N)c(SCC(=O)NCc3ccccc3OC)n2)cc1 | inconclusive: 18.4 µM [inhibitor, single point] | 
COc1ccc(CNC(=O)c2c(Nc3ccc(OC)cc3OC)sc(C(=O)c3ccc(Cl)cc3)c2N)cc1 | inconclusive: 18.4 µM [inhibitor, single point] | 
CCc1ccccc1N(C(=O)c1snc(C(N)=O)c1N)C(C(=O)NCC1CCCO1)c1c[nH]c2ccccc12 (stereo unspecified) | active: 20.6 µM | 
CCN1C(=O)/C(=C/C=C2/Sc3ccccc3N2CCO)SC1=S | inconclusive: 9.2 µM [inhibitor, partial curve] | 
c1cc(-c2cnc3cccnn23)c2cccnc2c1 | inconclusive: 14.6 µM [inhibitor, partial curve] | 
O=C(O)c1ccccc1C(=O)Nc1ccc(Br)c(C(F)(F)F)c1 |  | inactive: -1.36%
CCOc1cc(-c2noc(CCC(=O)NCCc3ccccc3)n2)ccc1OC |  | inactive: -6.21%
Cc1ccc(C(c2nnnn2C(C)(C)C)N(Cc2ccco2)Cc2cccs2)cc1 (stereo unspecified) | inconclusive: 29.1 µM [inhibitor, single point] | 
O=C1Nc2cc(C(=O)NCCCN3CCCC3)ccc2S/C1=C/c1ccccc1F | inconclusive: 25.9 µM [inhibitor, single point] | 
Nc1nc(N)nc(-c2ccc([N+](=O)[O-])o2)n1 | active: 23.1 µM | 

Structure (SMILES) | Potency | activity change, negative = growth inhibition
O=C(Nc1cccc([N+](=O)[O-])c1)C1COc2ccccc2O1 (stereo unspecified) | inconclusive: 23.1 µM [inhibitor, single point] | 
COCCN(Cc1cc2cc(C)ccc2[nH]c1=O)S(=O)(=O)c1ccc(Cl)cc1 | inconclusive: 29.1 µM [inhibitor, partial curve] | 
CCOC(=O)c1sc(NC(=O)CSc2nc3c(cc2C#N)CCCCC3)c(C#N)c1C | inconclusive: 29.1 µM [inhibitor, single point] | 
CCC(C)Nc1nc(N)c([N+](=O)[O-])c(Nc2ccccc2OC)n1 (stereo unspecified) | inconclusive: 25.9 µM [inhibitor, single point] | 
COc1ccc(NC(=O)N(C)C[C@H]2Oc3c(NS(=O)(=O)c4cccs4)cccc3C(=O)N([C@@H](C)CO)C[C@@H]2C)cc1 |  | inactive: -7.16%
COc1cc(OC)cc(C(=O)Nc2sc3c(c2C(N)=O)CCC3)c1 | inconclusive: 6.51 µM [inhibitor, partial curve, poor fit] | 
Cc1ccccc1NS(=O)(=O)CCCCC(Cl)(Cl)Cl | inconclusive: 29.1 µM [inhibitor, single point] | 
CCc1nc2ccc(C(=O)NCCN3CCNC3=O)cn2c1N(CCC(C)C)CCN(C)C |  | inactive: 5.06%
O=C1C(Cc2ccccc2)Nc2ncnc(N3CCOCC3)c2N1Cc1ccc(Br)cc1 (stereo unspecified) | inconclusive: 20.6 µM [inhibitor, single point] and inconclusive: 16.4 µM [inhibitor, single point] | 
COc1cccc(CNC(=O)CCS(=O)(=O)Cc2ccc(C)cc2)c1 | inconclusive: 20.6 µM [inhibitor, single point] | 
Cc1ccccc1OCCSc1nc2ncnc(N)c2[nH]1 | inconclusive: 4.61 µM [inhibitor, single point] | 
Cc1nc2c(C(=O)NCc3ccc(F)cc3)c[nH]n2c(=O)c1Cl |  | inactive: -6.46%
CCc1ccc(N(CC(=O)NC2CC2)S(=O)(=O)c2ccc(C)cc2)cc1 |  | inactive: -10.6%
NNc1nc2c(Cl)cccc2s1 | inconclusive: 20.6 µM [inhibitor, single point] | 
N#Cc1cccc(NC(=O)N2CCCC3(CCN(C(=O)c4cccc(F)c4)CC3)C2)c1 | inconclusive: 29.1 µM [inhibitor, single point] | 
COC(=O)CC1(C(=O)OC)Nc2cc(Cl)c(Cl)cc2S(=O)(=O)N1O (stereo unspecified) |  | inactive: -25.6%
CC(COc1ccccc1)N1CCC(CO)(CCc2ccccc2)CC1 (stereo unspecified) | inconclusive: 29.1 µM [inhibitor, single point] | 
CCCCNC(=O)CS(=O)Cc1nc(-c2cccc(Cl)c2)oc1C (stereo unspecified) | inconclusive: 29.1 µM [inhibitor, single point] | 
Cc1cc(C)cc(Nc2cc(C(=O)NCCCN(Cc3ccccc3)C(C)C)c3ccccc3n2)c1 | active: 3.26 µM | 
O=C(CNc1ccccc1-c1ccccc1)NCc1ccccc1 | inconclusive: 23.1 µM [inhibitor, single point] | 
CCOc1ccc(CNC(=O)c2cc(=O)[nH]c3ccc(S(=O)(=O)N4CCCCC4)cc23)cc1 |  | inactive: -0.677%
CN(Cc1ccco1)c1ncncc1-c1cccc(NS(C)(=O)=O)c1 |  | inactive: -17.7%
Cn1c(NC(=O)C2CC2)cc(=O)n(C)c1=O | inconclusive: 18.4 µM [inhibitor, single point] | 
